Results are given in words; binding and its absence hold for the method and conditions named. For some assays here: In cells and extracts the contact can be indirect. Some binding calls cover weakened binding; strength is not graded here.
What was measured:
[1] = target: endogenous human CD98 heavy chain (CD98hc/SLC3A2) (human (endogenous in HEK293, HeLa, HT29, MIA PaCa-2)) (UniProt P08195); assay: SDS-PAGE under non-reducing conditions with western blot; cell lysates run on SDS-PAGE under reducing or non-reducing conditions; WB with anti-LAT1 rabbit pAb; 125 kDa disulfide-linked complex against 40 kDa LAT1
[2] = target: endogenous mouse CD98 heavy chain (CD98hc/SLC3A2) (mouse (endogenous in NIH/3T3)) (UniProt P10852); assay: as above
[3] = target: endogenous mouse CD98 heavy chain (CD98hc/SLC3A2) (mouse (endogenous in NIH/3T3)) (UniProt P10852); assay: co-IP; lysates of NIH/3T3 cell lines (150 mM NaCl, 50 mM Tris pH 7.4, 1% Nonidet P-40); IP with anti-mouse CD98hc mAb MB872 and protein G Sepharose at 4°C; DTT-free SDS sample buffer; WB with anti-human LAT1 rabbit pAb

Sequences of proteins named here, by UniProt entry; tags and fusion partners are left off. A change or cut given only in a name is not applied to a line headed by its entry. A line that says so, or that is headed by a name, gives the form on record, which may keep a tag or linker. Residues count along the entry.
UniProt P08195, residues 102-630: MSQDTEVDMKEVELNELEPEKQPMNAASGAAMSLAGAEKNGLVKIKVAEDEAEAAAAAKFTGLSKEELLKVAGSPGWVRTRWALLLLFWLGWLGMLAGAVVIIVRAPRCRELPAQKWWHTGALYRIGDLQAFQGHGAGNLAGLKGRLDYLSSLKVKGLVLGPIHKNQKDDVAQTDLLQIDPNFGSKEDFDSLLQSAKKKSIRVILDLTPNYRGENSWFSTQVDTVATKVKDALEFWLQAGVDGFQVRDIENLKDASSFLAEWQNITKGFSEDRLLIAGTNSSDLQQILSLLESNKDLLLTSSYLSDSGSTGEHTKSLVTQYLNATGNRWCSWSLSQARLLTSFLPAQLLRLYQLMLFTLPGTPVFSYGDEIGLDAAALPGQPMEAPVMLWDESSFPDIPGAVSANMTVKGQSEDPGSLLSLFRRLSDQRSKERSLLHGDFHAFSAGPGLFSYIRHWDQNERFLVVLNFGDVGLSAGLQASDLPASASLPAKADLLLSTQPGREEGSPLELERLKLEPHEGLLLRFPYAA
UniProt P10852: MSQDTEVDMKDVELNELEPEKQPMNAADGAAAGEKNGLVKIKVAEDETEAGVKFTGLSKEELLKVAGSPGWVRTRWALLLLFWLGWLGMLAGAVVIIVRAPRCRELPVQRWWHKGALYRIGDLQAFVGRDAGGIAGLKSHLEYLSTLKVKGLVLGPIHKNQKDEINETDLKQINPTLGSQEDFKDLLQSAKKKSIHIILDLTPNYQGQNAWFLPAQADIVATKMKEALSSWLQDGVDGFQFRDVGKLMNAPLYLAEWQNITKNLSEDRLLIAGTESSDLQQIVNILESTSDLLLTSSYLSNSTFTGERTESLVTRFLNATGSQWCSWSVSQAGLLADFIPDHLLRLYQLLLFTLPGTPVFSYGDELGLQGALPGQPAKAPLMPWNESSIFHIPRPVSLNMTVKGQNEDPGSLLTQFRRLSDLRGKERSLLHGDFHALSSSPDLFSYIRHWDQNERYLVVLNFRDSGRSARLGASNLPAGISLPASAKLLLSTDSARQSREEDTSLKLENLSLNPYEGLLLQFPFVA
UniProt Q01650: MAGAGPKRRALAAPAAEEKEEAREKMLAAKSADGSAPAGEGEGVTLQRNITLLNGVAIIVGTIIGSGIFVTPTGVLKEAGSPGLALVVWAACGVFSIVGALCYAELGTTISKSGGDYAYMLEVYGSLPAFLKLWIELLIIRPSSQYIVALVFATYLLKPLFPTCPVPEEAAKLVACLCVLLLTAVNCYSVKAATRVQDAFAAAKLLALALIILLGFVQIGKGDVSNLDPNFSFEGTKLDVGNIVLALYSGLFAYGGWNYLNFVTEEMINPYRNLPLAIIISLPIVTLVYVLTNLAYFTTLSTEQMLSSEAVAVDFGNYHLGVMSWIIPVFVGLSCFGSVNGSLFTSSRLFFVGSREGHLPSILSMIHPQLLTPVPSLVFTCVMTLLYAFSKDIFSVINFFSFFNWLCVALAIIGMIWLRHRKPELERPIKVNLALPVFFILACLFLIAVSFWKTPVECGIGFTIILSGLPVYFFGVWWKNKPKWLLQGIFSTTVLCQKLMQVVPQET
human mutant (164S) L-type amino acid transporter 1 (LAT1)/SLC7A5 (Q01650, form named): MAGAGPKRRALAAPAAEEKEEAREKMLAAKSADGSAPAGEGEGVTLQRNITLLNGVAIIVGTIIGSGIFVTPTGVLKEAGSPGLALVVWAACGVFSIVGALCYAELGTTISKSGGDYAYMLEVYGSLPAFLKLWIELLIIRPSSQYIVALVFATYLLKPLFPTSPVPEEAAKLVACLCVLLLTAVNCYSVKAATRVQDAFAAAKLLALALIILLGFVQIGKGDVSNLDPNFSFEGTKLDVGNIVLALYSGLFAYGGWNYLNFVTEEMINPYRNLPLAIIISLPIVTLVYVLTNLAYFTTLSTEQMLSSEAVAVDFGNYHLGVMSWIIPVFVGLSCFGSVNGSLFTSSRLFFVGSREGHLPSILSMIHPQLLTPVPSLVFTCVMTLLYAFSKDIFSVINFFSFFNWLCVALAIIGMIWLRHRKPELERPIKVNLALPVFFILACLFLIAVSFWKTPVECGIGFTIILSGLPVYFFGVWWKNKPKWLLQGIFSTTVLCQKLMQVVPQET

binding [1] | binding [2] | binding [3] | Substance
binds |  |  | endogenous human L-type amino acid transporter 1 (LAT1)/SLC7A5 (from UniProt Q01650 1-507)
 | no binding | no binding | human mutant (164S) L-type amino acid transporter 1 (LAT1)/SLC7A5 (from UniProt Q01650 1-507)
 | binds | binds | human native (164C) L-type amino acid transporter 1 (LAT1)/SLC7A5 (from UniProt Q01650 1-507)

Source: PMC8238248
